According to paper PMC4207660, “Identification and Characterization of Hundreds of Potent and Selective Inhibitors of Trypanosoma brucei Growth from a Kinase-Targeted Library Screening Campaign” (PLoS Neglected Tropical Diseases, 2014):
In brackets after ≈: the same amount, converted by molar mass. Like-named read-outs stand apart in the source and are kept apart here.

Columns and labels:
[1] = tested on: T. brucei brucei parasites (Lister 427 strain); assay: Dose response growth inhibition assay (resazurin, 72 h); format: cell-based; settings: Trypanosoma brucei; T. b. brucei growth inhibition; read-out: Tbb pEC50 (converted)
Experimental: Greiner sterile black clear bottom 384-well assay plates were pre-dispensing with 200 nL of compound in each well, from master plates at 1 mM (100% DMSO) containing selection from the GSK compound collection. Controls of 0% response (control 1, 200 nL of 100%DMSO) and 100% response (control 2, 200 nL of 1 mM pentamidine) were included in each assay plate in columns 6 and 18, respectively. Plates containing 200 nL of 100% DMSO were included randomly in the assay, to assess quality through all process. […] After this period, 10 µL of 200 µM resazurin solution in prewarmed HMI-9 were added to each well, and plates were allowed to incubate 2 hours more prior fluorescence reading in a Wallac EnVision Multilabel Plate Reader (Perkin-Elmer). Raw fluorescent data from the Envision plate reader were uploaded into GSK HTS database (ActivityBase). Activity of each well was normalized as a percentage of inhibition per-plate basis using the following equation: [drawing 1]
For dose-response experiments, serial compound dilutions of selected hits from the primary campaign were plotted against compound concentration. Dose response master plates were prepared by 3-fold dilutions (starting with 10 mM DMSO stock solutions), providing 11 concentrations. From these master plates, 200 nL per well was stamped in final assay plates, including the same controls describe in the primary single shot assay. Compounds were dispensed as serial dilution curve format, with 11 points at 3-fold dilution and 40 µM as starting top concentration (n = 2). Growth inhibition assay was performed as described in previous assay.
A 4-parameter equation describing a sigmoidal dose-response curve was then fitted with an adjustable baseline using ActivityBase XE Runner software. Fitting of dose-response curves and EC50 determination were normalized as percentage of inhibition based on controls. The curve-fit model was based on a 4-parameter equation: [drawing 2]
Trypanosome cell culture. […]

[2] = CLND kinetic solubility assay; format: physicochemical; settings: phosphate buffered saline, pH 7.4, aqueous buffer, kinetic from dmso stock; Measured; read-out: Aq Sol
Experimental: 5 µL of 10 mM DMSO stock solution was diluted to 100 µL with pH 7.4 phosphate buffered saline, equilibrated for 1 hour at room temperature, filtered through Millipore MultiscreenHTS-PCF filter plates (MSSL BPC). The filtrate was quantified by suitably calibrated flow injection Chemi-Luminescent Nitrogen Detection.

Cytochrome P450 (CYP450) = Cytochrome P450 (CYP450) (Homo sapiens, UniProt P08684); assay: Cytochrome P450 inhibition profile; format: in vitro ADME; settings: Measured
Experimental: The P450 inhibition profile of the inhibitors was determined as previously described.

ChromlogD assay = assay: ChromlogD assay
Experimental: The Chromatographic Hydrophobicity Index (CHI)[22] values were measured using reversed phase HPLC column (Luna C18 (2), Phenomenex, UK) with a fast acetonitrile gradient at starting mobile phase of pH = 7.4. CHI values are derived directly from the gradient retention times by using a calibration line obtained for standard compounds. The CHI value approximates to the volume % organic concentration when the compound elutes. […] The average error of the assay is ±3 CHI unit or ±0.25 ChromlogD.

Structure (SMILES)	EC50 [1] [nM]	solubility kinetic at 1 h [2] [µM]	IC50 (Cytochrome P450 (CYP450); CYP3A4, VG substrate, read-out: CYP3A4VG pXC50 (converted)) [nM]	IC50 (Cytochrome P450 (CYP450); CYP3A4, VR substrate, read-out: CYP3A4VR pXC50 (converted)) [nM]	PFI (ChromlogD assay)
Nc1ncc(-c2cccnc2)c2scc(-c3ccc4cn[nH]c4c3)c12 [NEU-0001220]	251	33 (≈ 11.3 µg/mL)	501	31.6	–
CNC(=O)Nc1sc(-c2cccc(F)c2)cc1C(N)=O [NEU-0001221]	1000	232 (≈ 68.1 µg/mL)	–	–	5.71
NC(=O)c1cnc2cc(-c3nccs3)ccc2c1Nc1ccc2cn[nH]c2c1 [NEU-0001223]	100	–	–	–	8.35
